# Measurements reported in the BET-seq Pho4 binding data (Le et al. 2018).
# Some of the results follow. Values were computed here from the reads of four pooled replicates and scatter widely.
# Target: T1, Pho4 (S. cerevisiae) (UniProt P07270)
# T1 sequence: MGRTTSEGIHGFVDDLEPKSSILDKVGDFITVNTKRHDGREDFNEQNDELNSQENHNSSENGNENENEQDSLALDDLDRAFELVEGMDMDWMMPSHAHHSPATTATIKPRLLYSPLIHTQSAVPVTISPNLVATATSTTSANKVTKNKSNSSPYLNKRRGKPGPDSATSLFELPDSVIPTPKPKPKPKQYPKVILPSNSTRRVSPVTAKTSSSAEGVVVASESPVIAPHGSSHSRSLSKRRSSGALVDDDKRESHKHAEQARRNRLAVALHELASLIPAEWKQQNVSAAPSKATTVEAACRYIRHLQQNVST
# Test: relative binding free energy (BET-seq); higher = weaker binding
# Conditions: reference: library average
row,Sequence,relative binding free energy [kcal/mol]
1,TGTAGCACGTGGGCGC,-0.31
2,TTAATCACGTGCCTTT,0.17
3,GGGCTCACGTGGGTAT,0.19
4,GTGTGCACGTGGCCGG,0.01
5,GTGCACACGTGGTGTC,0.27
6,TTTGGCACGTGATTGC,0.01
7,CTTGACACGTGGGTTA,-0.25
8,TGGATCACGTGTCTGT,0.09
9,TGGTTCACGTGCCGGA,0.28
10,AGTTACACGTGTGGTC,0.2
11,GTGGGCACGTGGTGTA,-0.15
12,TAAAGCACGTGTTGTG,-0.21
13,AGTGTCACGTGATAAT,0.11
14,TCTTGCACGTGAGTTG,0.27
15,AGCCACACGTGGGGGG,-0.14
16,TTCGACACGTGGTAAT,-0.01
17,GGAGACACGTGGGCTT,-0.01
18,AAATACACGTGTTGAG,0.16
19,GGCTGCACGTGCGGCG,-0.04
20,TATAACACGTGCTGGT,-0.12
21,TTGCGCACGTGGAGGT,-0.2
22,GTCTGCACGTGATGTA,0.17
23,GCGGTCACGTGGGTGA,0.07
24,TGGTGCACGTGGGAAC,-0.18
25,GGTTGCACGTGGGCTT,-0.03
26,GTGTTCACGTGGCTAG,0.11

row,Sequence,relative binding free energy [kcal/mol]
1,AGGAACACGTGTCGGG,0.01
2,GGGGACACGTGTTAGA,0.28
3,AAGTCCACGTGATGGG,0.15
4,CGTTTCACGTGGAAGA,0.35
5,TGTCACACGTGTTGGC,0.05
6,TGATACACGTGGTCTT,0.1
7,GGGGCCACGTGAGTGC,0.17
8,AGTCGCACGTGAAGTG,0.21
9,ACTGGCACGTGGGAGA,-0.19
10,GATTTCACGTGTTTAT,0.3
11,ATTAGCACGTGGTGCG,-0.14
12,GGGGGCACGTGGTCGG,-0.21
13,GTTGGCACGTGTTGAC,0.01
14,GTTTGCACGTGTTCTA,0.11
15,GGAAACACGTGAGGGT,0.19
16,GAGGGCACGTGGGATC,-0.03
17,TGGTTCACGTGCCGTG,0.21
18,TTAGACACGTGGGTCA,-0.12
19,TTCATCACGTGGCAGT,0.14
20,TTGAGCACGTGATGAG,0.04
21,ATGTTCACGTGGTGGC,0.19
22,ATTATCACGTGATTGT,0.25
23,GGGTGCACGTGTCAGG,0.11
24,AAGAGCACGTGGGGAA,-0.26
25,AGCGTCACGTGTGTTA,0.05
26,CGGGGCACGTGTACGT,-0.11

row,Sequence,relative binding free energy [kcal/mol]
1,TTTTGCACGTGATCAA,0.06
2,TTGCTCACGTGGGAAG,0.32
3,TGGTTCACGTGACATG,0.21
4,GGATACACGTGTGGAA,0.25
5,TTTGTCACGTGTCATC,0.11
6,GGTAGCACGTGCCGTG,-0.06
7,TTATGCACGTGACGGT,0.01
8,AAGATCACGTGGGTGA,-0.02
9,GAGTGCACGTGTACTG,-0.01
10,TGCCTCACGTGGTTGT,0.09
11,TGGAACACGTGTGGGC,0.1
12,GGTTACACGTGGGACG,0.11
13,TGAATCACGTGGTTAG,0.14
14,TTATGCACGTGGTAGA,-0.11
15,GATTGCACGTGTGCTT,0.17
16,GTCTGCACGTGGTGGT,0.04
17,GTGGGCACGTGCGGGA,-0.21
18,GGGTACACGTGCTTAT,0.15
19,TGGAGCACGTGAATGG,0.27
20,TGCAGCACGTGGTTTT,-0.21
21,GGGATCACGTGTCGGA,0.18
22,TTAAGCACGTGGGTAA,-0.2
23,AATGACACGTGTGTAG,0.03
24,ATAGTCACGTGTTGCA,0.13
25,GGACTCACGTGTTGAG,0.21
26,TGTGCCACGTGATGGG,0

row,Sequence,relative binding free energy [kcal/mol]
1,CAGCTCACGTGGGGGT,0.13
2,CGTGTCACGTGATATT,0.22
3,GATTTCACGTGGTTTA,0.23
4,CTGCACACGTGGGTTT,0.1
5,TGAGACACGTGTTAGG,0.08
6,TGTTGCACGTGCGGAG,-0.05
7,TTTCTCACGTGTAGAA,0.32
8,AAGGACACGTGTTGAT,0.02
9,TGGTTCACGTGACTTA,0.2
10,TGTGCCACGTGCTAGG,-0.2
11,TTGCCCACGTGTTGTT,-0.11
12,ACTGTCACGTGTTTGG,0.06
13,CGGGTCACGTGTAGAA,0.19
14,GGGGACACGTGATTGC,0.2
15,ATATGCACGTGGCTGG,-0.11
16,TTATGCACGTGTGTAC,-0.04
17,TGTACCACGTGTGGGA,-0.05
18,TACGGCACGTGTGTGC,-0.06
19,ACTGGCACGTGTGGAT,-0.01
20,TAATTCACGTGTTGGG,0.31
21,GTGTCCACGTGAGGTG,0.18
22,GGCATCACGTGCGGGT,0.18
23,TGTGACACGTGCAAGT,-0.05
24,GGTAACACGTGAAGTT,0.45
25,GGCAGCACGTGTTTAT,0.14
26,TTGCACACGTGATTTT,0.21

row,Sequence,relative binding free energy [kcal/mol]
1,GTGCTCACGTGTGGAT,0.29
2,GTTTGCACGTGATGGG,0.26
3,GTGTTCACGTGAACTG,0.23
4,ATCTTCACGTGTTGGC,0.25
5,AGTAGCACGTGTGGGG,-0.08
6,TTGTACACGTGCATTA,0.07
7,GGTTACACGTGTCTGA,0.18
8,TGCAGCACGTGTAGGT,-0.05
9,GGGGCCACGTGTCGGT,-0.19
10,AAGCTCACGTGTGTGT,0.05
11,CTCTTCACGTGTGTTT,0.36
12,TTAGACACGTGAGGAG,0.18
13,GTAGGCACGTGTTGAA,0
14,AGTTACACGTGCGGGG,0.22
15,AGATCCACGTGTGAGT,0.25
16,CGGTTCACGTGGGATT,0.2
17,GTAGGCACGTGTGGTT,0.03
18,ATGTTCACGTGGCAGG,0.16
19,TAAGTCACGTGGAATT,0.11
20,TGCTTCACGTGAATGT,0.33
21,TATAGCACGTGGTGAT,-0.23
22,TATTGCACGTGTCATG,-0.12
23,TTCTACACGTGCGTGG,0.07
24,GTTGACACGTGGTGAA,0.07
25,CGAGTCACGTGTTGCG,0.09
26,GGTGACACGTGATGGT,0.16

row,Sequence,relative binding free energy [kcal/mol]
1,TATTGCACGTGAAGAT,-0.01
2,TTCATCACGTGTGCAT,0.26
3,GGGTGCACGTGTGCTC,0
4,TTCTGCACGTGTCTTG,0
5,GGGGTCACGTGGAATT,0.29
6,TTCTGCACGTGGGGTA,-0.19
7,CATTTCACGTGGAGCG,0.4
8,GAGGACACGTGTTTGT,0.06
9,GCGGTCACGTGTTGTA,0.08
10,TTGGCCACGTGGGATA,-0.28
11,CTGTGCACGTGGTCAT,-0.04
12,CGCCGCACGTGGGGGG,-0.25
13,TTTAACACGTGGCGTT,0.05
14,TGTCGCACGTGTGATA,0.02
15,CGTGTCACGTGTTTGT,0.2
16,ATAGGCACGTGGGGGG,-0.2
17,TTTTCCACGTGTGCGT,0.08
18,GTTGCCACGTGTATTT,-0.09
19,TGGCGCACGTGTGATA,0.16
20,ATCGTCACGTGTTATG,0.17
21,GTATACACGTGTAGGG,0.03
22,ATCTTCACGTGTTGCA,0.31
23,TGTCACACGTGGGGGG,0
24,GGTGACACGTGGTGCT,-0.05
25,GTGATCACGTGACAGT,0.31
26,CTCATCACGTGTGGTT,0.17

row,Sequence,relative binding free energy [kcal/mol]
1,GCGGGCACGTGTGGAT,-0.19
2,TACGGCACGTGTGAAG,0.01
3,TTTGTCACGTGTAGGT,0.04
4,GTGGTCACGTGCGGTT,0.08
5,GATCTCACGTGTTAGG,0.3
6,AGTGGCACGTGATAGA,-0.02
7,GACTGCACGTGGGGGG,-0.09
8,TGCCGCACGTGGAGTG,-0.11
9,TTCGTCACGTGGGTAT,0.05
10,TTCATCACGTGGTTAG,0.15
11,AATATCACGTGGGAAA,0.17
12,TTACTCACGTGCGTTT,0.12
13,GCTTTCACGTGTGGCG,0.13
14,CGAGGCACGTGCAGGG,-0.15
15,GGTATCACGTGCACGT,0.24
16,AGAGCCACGTGTGGAG,-0.08
17,GGTATCACGTGTAGGT,0.12
18,CGGTCCACGTGGGCGG,-0.13
19,ATGGTCACGTGAGGAA,0.27
20,TTGAGCACGTGGGGTG,-0.28
21,GGCGGCACGTGCATGT,-0.05
22,CTGGACACGTGAGGTT,0.23
23,TTTGTCACGTGACGGG,0.23
24,ATGGTCACGTGGCGAA,-0.01
25,GTGTGCACGTGAGAGC,0.37
26,TTATTCACGTGGGTAT,0.17

row,Sequence,relative binding free energy [kcal/mol]
1,ATCGACACGTGGTGGT,-0.07
2,TGTGGCACGTGGGTAT,-0.25
3,ATGAACACGTGGTGGG,0.01
4,AAGGTCACGTGATGGC,0.15
5,TGGCGCACGTGGTCGA,-0.2
6,GGTTACACGTGTAGCT,0.16
7,AGGGTCACGTGAATTC,0.44
8,GGACGCACGTGATGGT,0.03
9,TGTTACACGTGTCGGA,0.04
10,TCGGGCACGTGGAAAG,-0.03
11,ATTTGCACGTGCGGGG,-0.07
12,CTGGTCACGTGATAGT,0.14
13,TGAGTCACGTGGTTAT,0.07
14,TATGGCACGTGTCTAT,-0.12
15,CAAGTCACGTGGCGGG,0.13
16,CGTTTCACGTGCTGTT,0.16
17,AGCAACACGTGTGGGT,-0.05
18,ATAGTCACGTGGTGCG,-0.04
19,GTGAGCACGTGAGTTG,0.24
20,GTGTTCACGTGCGGAT,0.24
21,TATTTCACGTGAGGGG,0.34
22,TGGTACACGTGGTTAG,-0.04
23,TTAAGCACGTGGATGC,0.04
24,AGCTTCACGTGATGGT,0.27
25,GTAGGCACGTGAAGGA,0.17
26,GTTTACACGTGTTGTG,0.03

row,Sequence,relative binding free energy [kcal/mol]
1,TAATCCACGTGGTGGA,-0.03
2,GGTGTCACGTGGGGGT,0.05
3,GAAATCACGTGTTGGT,0.17
4,GGGTTCACGTGGCGTC,0.29
5,TTTTTCACGTGCGTCA,0.18
6,GTAGTCACGTGAAGGA,0.24
7,TATGCCACGTGTGGGC,-0.05
8,TGTTCCACGTGTTCGG,-0.07
9,GTGCGCACGTGATGTG,-0.07
10,GTTTGCACGTGGCGTT,0
11,TTATGCACGTGGTCCG,-0.09
12,GGGGACACGTGGGGCG,-0.2
13,GGCGGCACGTGGCGTT,-0.12
14,ATGGACACGTGAGCTT,0.29
15,TAGATCACGTGGTGTC,0.14
16,TGTTCCACGTGTGGTC,0.16
17,TGTTACACGTGAACTT,0.33
18,GGGTTCACGTGTCAAA,0.41
19,TCGGGCACGTGGCGGC,-0.24
20,AGGTGCACGTGATGAG,0.06
21,GCGGGCACGTGTGAGC,-0.01
22,GTGCACACGTGGCGTG,-0.17
